Measurements from the antibiotic and cytotoxicity screens of Wong et al. (2023).
The other results are listed elsewhere or left out.

test system: HepG2; test: cytotoxicity call (relative viability < 0.9); details: 10 µM

Row | SMILES | cytotoxicity call
1 | Cc1noc(C)c1S(=O)(=O)Nc1cccc2c1O[C@@H](CN(C)CC1CC1)[C@@H](C)CN([C@H](C)CO)C2=O | inactive
2 | C[C@@H]1CCCCO[C@@H](CN(C)C(=O)Nc2ccccc2)[C@@H](C)CN([C@H](C)CO)C(=O)c2cc(NC(=O)c3ccncc3)ccc2O1 | inactive
3 | COCC#Cc1ccc2c(c1)O[C@H](CN(C)S(=O)(=O)c1ccc(C)cc1)[C@@H](C)CN([C@@H](C)CO)S2(=O)=O | inactive
4 | COc1ccccc1C#Cc1ccc2c(c1)O[C@@H](CN(C)Cc1ccncc1)[C@@H](C)CN([C@H](C)CO)S2(=O)=O | inactive
5 | CCCCCCc1nc(-c2ccc(-c3ccc(Cl)c(Cl)c3)o2)cc2c1[Si](C(C)C)(C(C)C)O[C@H]2c1ccccc1 | inactive
6 | Cc1ccc(S(=O)(=O)Nc2ccc3c(c2)CC(=O)N([C@@H](C)CO)C[C@@H](C)[C@@H](CN(C)Cc2ccc(Oc4ccccc4)cc2)O3)cc1 | inactive
7 | COCC#Cc1ccc2c(c1)O[C@@H](CN(C)Cc1ccc(F)cc1)[C@@H](C)CN([C@@H](C)CO)S2(=O)=O | inactive
8 | O=C(C[C@@H]1CC[C@H]2[C@@H](COC[C@@H](O)CN2S(=O)(=O)c2ccc(F)cc2)O1)NCCN1CCCCC1 | inactive
9 | CCCNC(=O)c1cc2c(c(-c3cccc(-c4cccc(OC)c4)c3)n1)[C@@H](CCO)N([S@](=O)C(C)(C)C)C2 | inactive
10 | C[C@H]1CN([C@@H](C)CO)C(=O)c2cc(NC(=O)CCN3CCOCC3)ccc2O[C@H]1CN(C)S(=O)(=O)c1ccc(Cl)cc1 | inactive
11 | C[C@@H]1CN([C@@H](C)CO)C(=O)c2ccccc2-c2ccccc2CO[C@@H]1CN(C)Cc1ccccc1C(F)(F)F | inactive
12 | C[C@@H]1CN([C@H](C)CO)C(=O)c2cc(C#CC3CCCC3)cnc2O[C@@H]1CN(C)C(=O)Cc1ccccn1 | inactive
13 | C[C@H]1CN([C@@H](C)CO)S(=O)(=O)c2ccc(C#CC3CCCC3)cc2O[C@@H]1CN(C)C(=O)Cc1ccncc1 | inactive
14 | CCCNC(=O)N1C[C@@H](O)COC[C@@H]2O[C@H](CC(=O)N3CCN(C)CC3)CC[C@H]21 | inactive
15 | C[C@H](CO)N1C[C@H](C)[C@@H](CN(C)C(=O)Nc2ccc(N3CCCCC3)cc2)OCc2cn(nn2)CCCC1=O | inactive
16 | C[C@H](CO)N1C[C@H](C)[C@@H](CN(C)S(C)(=O)=O)Oc2ccc(NC(=O)Cn3cnnn3)cc2CC1=O | inactive
17 | CC(C)NC(=O)Nc1ccc2c(c1)C(=O)N([C@@H](C)CO)C[C@@H](C)[C@H](CN(C)Cc1ccc(Cl)c(Cl)c1)OCCCC[C@H](C)O2 | inactive
18 | CC(C)N1C(=O)CNC1=S | inactive
19 | COc1ccc(C#Cc2cnc3c(c2)C(=O)N([C@H](C)CO)C[C@H](C)[C@H](CN(C)C(=O)NC(C)C)O3)cc1OC | inactive
20 | CCn1nnc2c(SCC(N)=O)ncnc21 | inactive
21 | O=C(O)[C@H](O)[C@@](O)(Cc1ccc(O)cc1)C(=O)O | inactive
22 | COc1ccc(NC(=O)Nc2ccc3c(c2)CC(=O)N([C@H](C)CO)C[C@H](C)[C@@H](CN(C)Cc2ccc(C(=O)Nc4ccccc4N)cc2)O3)cc1 | inactive
23 | C[C@@H]1CCCCO[C@@H](CN(C)S(=O)(=O)c2ccc(Cl)cc2)[C@@H](C)CN([C@@H](C)CO)C(=O)c2cc(NC(=O)c3ccccc3)ccc2O1 | inactive
24 | C[C@H]1CCCCO[C@H](CN(C)S(=O)(=O)c2ccccc2)[C@@H](C)CN([C@@H](C)CO)C(=O)c2cc(NC(=O)Nc3ccc(C(F)(F)F)cc3)ccc2O1 | active
25 | C[C@H](CO)N1C[C@H](C)[C@H](CN(C)C(=O)Nc2ccc(C(F)(F)F)cc2)Oc2c(NC(=O)c3nc4ccccc4s3)cccc2C1=O | inactive
26 | COc1ccc(S(=O)(=O)N(C)C[C@H]2OCCCC[C@H](C)Oc3ccc(NC(=O)Nc4ccc5c(c4)OCO5)cc3C(=O)N([C@H](C)CO)C[C@@H]2C)cc1 | inactive
27 | COc1ccc(NC(=O)N(C)C[C@H]2Oc3c(NS(C)(=O)=O)cccc3C(=O)N([C@@H](C)CO)C[C@@H]2C)cc1 | inactive
28 | O=C(C[C@H]1C[C@@H]2c3cc(NC(=O)Nc4ccc(C(F)(F)F)cc4)ccc3O[C@@H]2[C@H](CO)O1)NCc1cc(F)ccc1F | inactive
29 | C[C@@H]1CN([C@@H](C)CO)C(=O)c2cc(NC(=O)Nc3ccccc3)ccc2O[C@@H](C)CCCCO[C@H]1CN(C)S(=O)(=O)c1cccc(F)c1 | inactive
